Among the data in a collection of fitness landscapes (doi:10.1126/science.1257360) are enrichment ratio values, retold here.

The list shows a part of the results.

B1: PhoQ; a variant is named by its letters at X, in order, P23837 (parent)
chain: MKKLLRLFFPLSLRVRFLLATAAVVLVLSLAYGMVALIGYSVSFDKTTFRLLRGESNLFYTLAKWENNKLHVELPENIDKQSPTMTLIYDENGQLLWAQRDVPWLMKMIQPDWLKSNGFHEIEADVNDTSLLLSGDHSIQQQLQEVREDDDDAEMTHSVAVNVYPATSRMPKLTIVVVDTIPVELKSSYMVWSWFIYVLSANLLLVIPLLWVAAWWSLRPIEALAKEVRELEEHNRELLNPATTRELTSLVRNLNRLLKSERERYDKYRTTLTDLTHSLKTPLXXLQXXLRSLRSEKMSVSDAEPVMLEQISRISQQIGYYLHRASMRGGTLLSRELHPVAPLLDNLTSALNKVYQRKGVNISLDISPEISFVGEQNDFVEVMGNVLDNACKYCLEFVEISARQTDEHLYIVVEDDGPGIPLSKREVIFDRGQRVDTLRPGQGVGLAVAREITEQYEGKIVAGESMLGGARMEVIFGRQHSAPKDE

The experiment covers variants of B1. Kind of experiment: enrichment ratio after two sorts for PhoP signalling (ratio (wild type AVST 3.29)); higher = more functional. The note with it: with PhoP (E. coli).
On to FLGF, for which the enrichment ratio is no more than 0.25. As for DQVP, the enrichment ratio is no more than 0.25.

In the case of NRDD, the enrichment ratio was no more than 0.25. In the case of FQSS, the enrichment ratio is no more than 0.25. With HDWP, the enrichment ratio is no more than 0.25.

For FCVE, the enrichment ratio is no more than 0.25.

RNRL: the enrichment ratio is no more than 0.25. Next, FCRW: no more than 0.25; IRIH: no more than 0.25; FNSH: no more than 0.25.

Consider SKDN, for which the enrichment ratio is no more than 0.25. For SDDC, the enrichment ratio was no more than 0.25. Next, YHCE: no more than 0.25; HCFK: no more than 0.25; KPRF: no more than 0.25. Take DYWA: the enrichment ratio was no more than 0.25.

Take IFCY: the enrichment ratio is no more than 0.25.

Take QCGN: the enrichment ratio was no more than 0.25. MESR: the enrichment ratio was no more than 0.25. In the case of QMKA, the enrichment ratio is no more than 0.25.

Turning to VTYC, the enrichment ratio was no more than 0.25. Turning to FFST, the enrichment ratio is no more than 0.25. On to QFAH, for which the enrichment ratio was no more than 0.25. Next, SPFS: no more than 0.25; PHDH: no more than 0.25; AVGF: 11. Regarding THAM, the enrichment ratio worked out at 18.6. As for IESH, the enrichment ratio was no more than 0.25. Next, CLAM: no more than 0.25; ARQW: no more than 0.25; TSVD: no more than 0.25. On to LLHE, for which the enrichment ratio is no more than 0.25. As to HGIN, the enrichment ratio is no more than 0.25. The value for FGMY was no more than 0.25. As to VPMT, the enrichment ratio is no more than 0.25. For EYFG, the enrichment ratio was no more than 0.25.

In the case of VSIF, the enrichment ratio is no more than 0.25.

For KWTF, the enrichment ratio is no more than 0.25.

On to VEWA, for which the enrichment ratio is no more than 0.25. On to PVRI, for which the enrichment ratio is no more than 0.25. Next, VTTM: 16.4; YTVW: no more than 0.25; HSQG: no more than 0.25.

Turning to TPQY, the enrichment ratio is no more than 0.25. On to ESLQ, for which the enrichment ratio is no more than 0.25. With AAME, the enrichment ratio was found to be 30.8. With TSCP, the enrichment ratio is no more than 0.25. DGPR: the enrichment ratio was no more than 0.25. Turning to SHKV, the enrichment ratio was no more than 0.25. Take WAYT: the enrichment ratio was no more than 0.25.

On to QGIS, for which the enrichment ratio is no more than 0.25. Regarding HKIQ, the enrichment ratio is no more than 0.25.

SWFA: the enrichment ratio is no more than 0.25. With HSSV, the enrichment ratio came to 0.35. Take LWRC: the enrichment ratio was no more than 0.25.

As to YFQI, the enrichment ratio was no more than 0.25. As to PRVL, the enrichment ratio is no more than 0.25. In the case of KQMR, the enrichment ratio was no more than 0.25. EALY: the enrichment ratio is no more than 0.25.

Consider EFPY, for which the enrichment ratio is no more than 0.25. For GPRM, the enrichment ratio is no more than 0.25.

For the variant SELD, the enrichment ratio worked out at 14. Turning to LPMW, the enrichment ratio was no more than 0.25. In the case of YNHR, the enrichment ratio is no more than 0.25. The value for EGYW was no more than 0.25; that for EFFE was no more than 0.25.

As to HRHF, the enrichment ratio is no more than 0.25. On to NQIQ, for which the enrichment ratio was no more than 0.25. For NYVK, the enrichment ratio was no more than 0.25. As for WPLP, the enrichment ratio is no more than 0.25. Turning to WTRC, the enrichment ratio was no more than 0.25.

For VSKV, the enrichment ratio was no more than 0.25.

With SEAV, the enrichment ratio is 13.6. Turning to QQWL, the enrichment ratio amounted to 11.7.

As for RGLS, the enrichment ratio is no more than 0.25.

Regarding GYCW, the enrichment ratio is no more than 0.25. For the variant YIMY, the enrichment ratio was no more than 0.25. The value for SNPW was no more than 0.25. On to FARL, for which the enrichment ratio was no more than 0.25. Turning to YDAA, the enrichment ratio is no more than 0.25. With WLGR, the enrichment ratio was no more than 0.25. Next, YHIF: no more than 0.25; RSSH: no more than 0.25; MNLL: 12.4.

Consider LPSS, for which the enrichment ratio is no more than 0.25. TNKH: the enrichment ratio is no more than 0.25. Turning to MMFW, the enrichment ratio is no more than 0.25.

In the case of YMRM, the enrichment ratio was no more than 0.25.

For the variant SESD, the enrichment ratio was found to be 9.24.

GHGW: the enrichment ratio is no more than 0.25.

For PNML, the enrichment ratio was no more than 0.25. For the variant VVMD, the enrichment ratio was no more than 0.25. For PGWF, the enrichment ratio was no more than 0.25.

On to QEIC, for which the enrichment ratio is no more than 0.25. The value for MKFA was no more than 0.25. Take FVDI: the enrichment ratio is no more than 0.25. For the variant SFAQ, the enrichment ratio was found to be 0.83. As to AAGY, the enrichment ratio is no more than 0.25.

For VDNT, the enrichment ratio is no more than 0.25. Next, APCW: 4.08; MLHM: 4.25; QVCH: no more than 0.25.

YKWG: the enrichment ratio is no more than 0.25. With KCDR, the enrichment ratio is no more than 0.25. For IWMP, the enrichment ratio was no more than 0.25. Consider VELQ, for which the enrichment ratio turned out to be 3.33. KGGN: the enrichment ratio is no more than 0.25. For QSSQ, the enrichment ratio came to 11.3. Next, SAWN: 4.82; IPCW: no more than 0.25; DHPY: no more than 0.25. In the case of FQMH, the enrichment ratio is no more than 0.25. Turning to WVRG, the enrichment ratio is no more than 0.25. For the variant YRDQ, the enrichment ratio is no more than 0.25.

As for AGFT, the enrichment ratio was no more than 0.25.

On to YVYP, for which the enrichment ratio was no more than 0.25.

Consider GRQQ, for which the enrichment ratio is no more than 0.25. With HQQI, the enrichment ratio was no more than 0.25.

For the variant LCFH, the enrichment ratio was no more than 0.25. As for AVMR, the enrichment ratio came to 8.76.

Regarding SWNL, the enrichment ratio is no more than 0.25. PKDD: the enrichment ratio was no more than 0.25. For ARIP, the enrichment ratio was no more than 0.25. On to IYMI, for which the enrichment ratio was no more than 0.25. Take ILVL: the enrichment ratio was no more than 0.25. In the case of DQSG, the enrichment ratio is no more than 0.25. With MHYP, the enrichment ratio was no more than 0.25. As for ADAR, the enrichment ratio was no more than 0.25.

For PALV, the enrichment ratio is no more than 0.25. As for IHSR, the enrichment ratio is no more than 0.25. Consider LKFW, for which the enrichment ratio is no more than 0.25. VQEP: the enrichment ratio is no more than 0.25. Regarding EYPD, the enrichment ratio is no more than 0.25. Next, LTDM: no more than 0.25; DADA: no more than 0.25; IVTY: no more than 0.25. Take QVTH: the enrichment ratio was no more than 0.25. Take ALQM: the enrichment ratio was no more than 0.25.

As to HCPY, the enrichment ratio is no more than 0.25. Next, YILR: no more than 0.25.

Take RDWD: the enrichment ratio was no more than 0.25. For HQTK, the enrichment ratio is no more than 0.25. Take KTIV: the enrichment ratio is no more than 0.25. FFVQ: the enrichment ratio was no more than 0.25. For DPYP, the enrichment ratio is no more than 0.25. As to IVLC, the enrichment ratio is no more than 0.25.

For the variant GMPF, the enrichment ratio was no more than 0.25. On to VINN, for which the enrichment ratio was no more than 0.25. For RLHS, the enrichment ratio is no more than 0.25. For KSVM, the enrichment ratio was no more than 0.25.

As to HARC, the enrichment ratio is no more than 0.25. Next, QIFG: no more than 0.25; LVHF: no more than 0.25.
